Our source for the displacement values is PubChem BioAssay AID1240 (Sanford-Burnham Center for Chemical Genomics, 2008).

Molecules are shown by their SMILES. Screen size: about 50,000 compounds; about 800 (1.6%) showed an effect of 50% or more. The list shows a part of the results.

For this assay, the target named is Bcl-2-like protein 10 (Homo sapiens) (UniProt Q9HD36). The assay can be described thus: TR3 peptide-Bcl-B binding displacers, biochemical primary FP assay, phenotype converters (AID 1240).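 Also: 0% = Bcl-B with tracer peptide and DMSO and 100% = tracer peptide lacking Bcl-B.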 The following applies: GST-Bcl-B / FITC-TR3 peptide fluorescence polarization; stronger effect = higher value; compound at 3.75 mg/L.
Sequence of UniProt Q9HD36 (Q9HD36 whole entry, looked up): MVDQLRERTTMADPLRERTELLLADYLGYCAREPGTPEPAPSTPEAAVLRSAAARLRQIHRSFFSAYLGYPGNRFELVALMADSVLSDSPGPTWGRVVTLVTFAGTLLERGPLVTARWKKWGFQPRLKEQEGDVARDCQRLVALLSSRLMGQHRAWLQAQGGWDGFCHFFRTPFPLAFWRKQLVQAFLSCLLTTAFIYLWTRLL
For the compound `COc1ccccc1OCC(=O)Nc1sc2c(c1C(N)=O)CCC(C)C2` (stereo unspecified), the displacement stood at 2.6%.

As to `c1ccc(-c2cn(-c3ccccc3)nc2-c2ccccc2)cc1`, the displacement was 14.1%.

Turning to `COc1ccc(OCC(=O)Nc2ccc(OC)c(OC)c2)cc1`, the displacement was -4.2%.

Turning to `COCCOC(=O)c1c(C)oc2ccc(OS(C)(=O)=O)cc12`, the displacement came to 12.2%.

For `O=c1[nH]c2ccc(Cl)cc2c(-c2ccccc2)c1N1CCOCC1`, the displacement was -27.7%.

Consider `Cc1[nH]c2c(Cl)cccc2c(=O)c1CN(C)Cc1ccccc1`, for which the displacement came to 8.7%.

`CCCC(C(=O)O)N1C(=O)/C(=C\c2ccc(-c3ccc([N+](=O)[O-])cc3)o2)SC1=S` (stereo unspecified): the displacement was found to be 0.3%.

As for `CCOC(=O)c1[nH]c(C)c(C(=O)C(C)CC)c1C` (stereo unspecified), the displacement is -24.4%.

As to `CCSc1nnc2c(n1)OC(c1ccc(-c3ccc(Cl)cc3)o1)Nc1ccccc1-2` (stereo unspecified), the displacement stood at 15.7%.

`CC(C)CNC(=O)c1cccc(NC(=O)CSCc2ccccc2)c1`: the displacement is -18.1%.

Take `CCC(=O)OCCn1c(=O)c2ccccc2c2ccccc2c1=O`: the displacement is 9%.

As for `Cc1ccc(OCC(O)Cn2cnc3cc(C)c(C)cc32)cc1` (stereo unspecified), the displacement was -13.4%.

On to `Cc1nnc(SC(=O)Cn2c3ccccc3c3ccccc32)s1`, for which the displacement stood at 7.3%.

For the compound `COc1ccc(C2/C(=C(\O)c3ccc(F)cc3)C(=O)C(=O)N2CCCCCC(=O)O)cc1` (stereo unspecified), the displacement was -10.6%.

With `O=C(Nc1ccc(S(=O)(=O)N2CCOCC2)cc1)c1ccc(Br)s1`, the displacement was -3.3%.

As for `Cc1[nH]n(-c2ccc([N+](=O)[O-])cc2)c(=O)c1/C=N/N1CCOCC1`, the displacement was -4.9%.

Turning to `CCCOc1ccccc1N/C(=N/S(=O)(=O)c1ccc(C)cc1)Nc1nc(C)cc(C)n1`, the displacement came out at 12.1%.

On to `Cc1cc(/C=C(/C(=O)c2ccccc2)c2nc3ccccc3[nH]2)c(C)n1-c1ccccc1`, for which the displacement came to 0.7%.

Take `CCOc1ccccc1NC(=O)C(=O)NCc1ccccn1`: the displacement was 6.9%.

With `CCOc1ccc(-n2c(-c3ccccc3)n[nH]c2=S)cc1`, the displacement was -1.5%.

Consider `COc1ccccc1C(=O)NCC(=O)O`, for which the displacement was determined as 7.3%.

Turning to `CCOc1cc(/C=C2/SC(=S)N(CC(=O)O)C2=O)ccc1OCc1ccc(Cl)cc1`, the displacement is 12.7%.

`COc1ccc(S(=O)(=O)N2CCC(C(=O)O)CC2)cc1C(=O)O`: the displacement came to 10.3%.

For `CCOC(=O)C(CCOc1c(C)cc(C)cc1Cl)C(=O)OCC`, the displacement was -2.9%.

For `Cc1nnc(N/N=C/c2ccc(O)cc2)[nH]c1=O`, the displacement was -1.1%.

For `COc1ccc(C(C)=O)cc1N1C(=O)C2C3C=CC(C3=C(C)C)C2C1=O` (stereo unspecified), the displacement is -4.6%.

As for `Cc1cc(OCc2nc(-c3ccc(Cl)cc3Cl)no2)ccc1Br`, the displacement is -4.5%.

Turning to `COc1ccc(C2C(C#N)=C(N)Oc3c2c(C)nn3-c2ccccc2)cc1OC` (stereo unspecified), the displacement was -9.5%.

As to `COc1cc(/C=C2/SC(=S)N(C)C2=O)ccc1OCCOc1ccc([N+](=O)[O-])cc1`, the displacement came to 74.5%.

Consider `C=CCNC(=O)c1cccc(OCc2ccccc2)c1`, for which the displacement amounted to 11.6%.

Consider `Cc1cccc(C)c1NC(=O)C12CC3CC(CC(C3)C1)C2`, for which the displacement was -2.1%.

For the compound `COc1ccc(CC(=O)Nc2oc(-c3ccccc3)c(-c3ccccc3)c2C#N)cc1`, the displacement was -4%.

Turning to `Cc1ccc(OCCNC(=O)c2ccc(Br)cc2)cc1`, the displacement was 16.1%.

With `Cc1cccc(C)c1NC(=O)CN(c1cccc([N+](=O)[O-])c1)S(=O)(=O)c1ccccc1`, the displacement came out at 5%.

As for `COc1ccc(/C=C2/SC(N3CCCCC3)=NC2=O)cc1`, the displacement was found to be 8.4%.

For the compound `CC(=O)NC1=C(C(C)=O)C2C(C1)C2(C)C` (stereo unspecified), the displacement amounted to 16.4%.

For the compound `C/C(=C\C(=O)c1ccc(Br)cc1)Nc1cccc(O)c1`, the displacement is 7.4%.

In the case of `O=C(c1ccc(Cl)cc1)N1N=C(c2cccc([N+](=O)[O-])c2)CC1(O)C(F)(F)F` (stereo unspecified), the displacement stood at 10%.

With `CCN(CC)C(=O)c1sc(NC(=O)COc2ccc(Cl)cc2)c(C(=O)OC(C)C)c1C`, the displacement is -4.5%.

As for `CCOC(=O)c1c(N)c(C#N)c(C)n1-c1ccc(Br)cc1`, the displacement was -11.6%.

For the compound `Cc1ccc(-c2cc3nc(C)c(C)c(C(C)(C)C)n3n2)cc1`, the displacement is -4%.

As for `COc1cc(C(=O)N2c3ccc(C)cc3-c3c(ssc3=S)C2(C)C)cc(OC)c1OC`, the displacement was -11%.

Take `CCCCc1ccc(/C=N/Nc2ccc([N+](=O)[O-])cc2)s1`: the displacement was -17.2%.

Take `Cc1ccc(C)c(NC(=O)c2cccc(F)c2)c1`: the displacement was determined as 2.6%.

Regarding `CN(C)C(=O)NC(NC(=O)N(C)C)C(=O)c1ccccc1`, the displacement was found to be 9.4%.

For `COc1ccc(Cl)cc1C(=O)N1CCN(c2ccccc2)CC1`, the displacement amounted to 6.6%.

For the compound `Cc1cccc(-n2c(C)cc(/C=C3/SC(=S)NC3=O)c2C)c1`, the displacement was -14.4%.

Consider `O=C(c1cc(F)c(F)cc1Cl)N1CCN(c2ccc([N+](=O)[O-])c3cccnc23)CC1`, for which the displacement amounted to 5.9%.

For the compound `O=C(Nc1cccc(C(F)(F)F)c1)C1CC(=O)N(c2ccccc2)C1` (stereo unspecified), the displacement stood at 6.1%.

`Cc1ccccc1NC(=O)CSCc1ccccc1`: the displacement turned out to be 7.6%.

In the case of `C=CCc1cccc(/C=N/n2c(C)nnc2C)c1O`, the displacement was -12.1%.

As for `COC(=O)c1ccc(NC(=S)NC(=O)c2ccc(F)cc2)cc1`, the displacement came out at 8%.

As for `O=[N+]([O-])c1ccc(-c2ccc(C(=S)N3CCOCC3)o2)cc1`, the displacement was determined as 7.7%.

With `CC(NC(=O)CCN1C(=O)c2ccccc2C1=O)c1ccccc1` (stereo unspecified), the displacement was determined as 0.9%.

For the compound `CC(C)CCNC(=O)Cc1ccccc1[N+](=O)[O-]`, the displacement stood at 5.5%.

As for `O=S(=O)(Nc1nc2ccccc2nc1Nc1ccccc1)c1ccccc1`, the displacement came out at 16.9%.

Regarding `CCN1C(=O)/C(=C/c2ccc(I)cc2)SC1=S`, the displacement turned out to be 9.5%.

For the compound `O=C(Nc1cccc2ccccc12)c1cccc(I)c1`, the displacement was determined as 10.2%.

Regarding `O=C(N/C(=C/c1ccco1)C(=O)N1CCCCCC1)c1cccs1`, the displacement turned out to be 4.9%.

Turning to `O=C(O)c1ccccc1-c1ccccc1C(=O)Nc1nc(-c2ccccc2)cs1`, the displacement is 24.8%.

For the compound `O=C(N/N=C/c1cc(Br)ccc1OCc1ccccc1)C(O)(c1ccccc1)c1ccccc1`, the displacement is -5.9%.

Regarding `O=C(NC(=S)Nc1cccc2ccccc12)c1cc2ccccc2oc1=O`, the displacement was -11.1%.

In the case of `O/N=C/c1cn(-c2ccccc2)nc1-c1ccccc1`, the displacement came to 10%.

Take `COc1cc(NC(=O)c2cc([N+](=O)[O-])ccc2N2CCCCC2)c2ncccc2c1`: the displacement was found to be 13.5%.

As to `CCOC(=O)c1c(N)c(C#N)c(C)n1-c1ccc(Cl)cc1`, the displacement is -3.5%.

`CCOC(=O)c1c(C)oc2c(CN(C)C)c(Br)c(OC)c(O)c12`: the displacement is -8.3%.

`O=C(N/N=C/C(Br)=C/c1ccccc1)C(O)c1ccccc1` (stereo unspecified): the displacement worked out at 6.3%.

For the compound `Cc1ccc(S(=O)(=O)N2CCOCC2)cc1C`, the displacement came out at 2.3%.

Consider `Cc1ccccc1NC(=O)CN(c1ccc(Br)cc1)S(C)(=O)=O`, for which the displacement is 1.7%.

Take `O=C1CCCCC1C1(O)C(=O)Nc2ccc(Br)cc21` (stereo unspecified): the displacement is -13.3%.

Consider `COc1ccc(/C=N/n2c(C)nnc2C)c(OC)c1OC`, for which the displacement worked out at 12.3%.

On to `Cc1ccc2c(Cl)c(C(=O)NCc3ccc(Cl)cc3)sc2c1`, for which the displacement was 4%.

With `O=C(CCC(NC(=O)c1ccccc1)C(=O)NCCCO)OCc1ccccc1` (stereo unspecified), the displacement was 10.9%.

As for `Clc1ccc(-c2nc(NCCN3CCOCC3)c3ccccc3n2)cc1`, the displacement was -1.9%.

Take `Cc1cccc(-n2c(C)cc(/C=C3/NC(=O)NC3=O)c2C)c1`: the displacement came out at 20.6%.

On to `Cc1cc(C)c(NC(=O)COc2cc(C)c(Cl)c(C)c2)c(C)c1`, for which the displacement came to 8.5%.

In the case of `NC1=NC2(CCCCC2)N=C(Nc2ccc(F)cc2F)N1`, the displacement was -7.4%.

Regarding `C=CCC1(NCc2ccco2)CCN(CC)CC1`, the displacement is 10.9%.

Regarding `CCOC(=O)COc1ccc(/C=C2\C(=O)NC(=O)N(c3cc(C)cc(C)c3)C2=O)cc1OC`, the displacement is -5.9%.

Regarding `CC(C)(C)C(=O)Nc1cccc(C(=O)Nc2ccc(O)cc2)c1`, the displacement was -6.9%.

On to `COc1cc(O)c(NC(C)=O)c2nonc12`, for which the displacement was determined as 5.1%.

`C=CCN1C(=O)/C(=c2\sc3n(c2=O)C(c2ccc(OC)c(OC)c2)C(C(=O)OC)=C(C)N=3)c2ccccc21` (stereo unspecified): the displacement worked out at 7.1%.

Take `NC(=O)c1ccc(NC(=O)Cc2ccc(Cl)cc2)cc1`: the displacement is -1%.

Consider `COc1ccccc1C(=O)Nc1cccnc1`, for which the displacement was 4.2%.

On to `CCOc1cc(/C=c2\sc3nc4ccccc4n3c2=O)cc(Cl)c1OCCOc1ccccc1C`, for which the displacement was 12.4%.

Take `CCOc1ccccc1NC(=O)c1cc([N+](=O)[O-])ccc1N1CCN(Cc2ccccc2)CC1`: the displacement stood at 11.8%.

Regarding `CCO/C(C)=C1\C(=O)Nc2ccccc21`, the displacement stood at 11%.

Turning to `O=C(Nc1ccccc1S)c1cc2c(ccc3ccccc32)oc1=O`, the displacement is -4.6%.

Regarding `COc1ccc(/C=C/C(=O)Nc2ccc(C)c([N+](=O)[O-])c2)cc1OC`, the displacement is -7%.

For the compound `C/C(=N/NC(=O)c1ccccc1C)c1ccc(NC(=O)C(F)(F)F)cc1`, the displacement is -6.1%.

As to `Cc1ccc(-c2nc3cc(NC(=S)NC(=O)c4ccco4)ccc3o2)cc1`, the displacement was 10.2%.

In the case of `CCOC(=O)N(CCCC(=O)OC)CP(=O)(OCC)OCC`, the displacement is 15%.

As for `CCOC(=O)C1=C(C)N=c2s/c(=C\c3ccc(N(C)C)cc3)c(=O)n2C1c1cccc(OC)c1` (stereo unspecified), the displacement was -53.2%.

For `Cc1ccccc1NC(=O)c1ccc(NC(=O)c2ccco2)cc1`, the displacement was 0.3%.

`Cc1cccc(OCC(=O)O/N=C(\N)Cc2cccs2)c1`: the displacement is -1%.

As for `CN1CCN(CCCNc2c([N+](=O)[O-])c(=O)sc3ccccc23)CC1`, the displacement was -14.5%.

As for `CC(C)(C)OC(=O)c1ccc([N+](=O)[O-])cc1`, the displacement was 13.8%.

As for `O=c1c2c3c(sc2ncn1/N=C/c1cccs1)CCCC3`, the displacement came to 2.9%.

As to `C=CCc1cccc(/C=N/c2nc3ccccc3n2CC)c1O`, the displacement worked out at 5.1%.

With `Cc1cc(=O)oc2cc(OC(=O)c3ccc([N+](=O)[O-])cc3Cl)ccc12`, the displacement came to 7.3%.

As for `CN(CCO)CCOCCOc1ccc(C(C)(C)C)cc1`, the displacement stood at 15.9%.

As for `CC(C)(C)NC(=O)c1cc2nc(-c3ccccc3)cc(C(F)(F)F)n2n1`, the displacement amounted to 13%.

With `C/C=C/C=C(/NC(=O)c1ccccc1)C(=O)OC`, the displacement was 10.5%.

Take `COc1ccc(Br)cc1/C=C/C(=O)Nc1cccc(C(F)(F)F)c1`: the displacement worked out at 1.6%.

`NC(=O)c1cccc2c1-c1ccccc1C2`: the displacement turned out to be 4.6%.

As for `COCc1cc(CN2CCC(C)CC2)c(O)c2ncccc12`, the displacement is 12.2%.

As for `CCOC(=O)c1cccc(NC(=O)c2c(-c3ccccc3Cl)noc2C)c1`, the displacement amounted to 2.5%.

Turning to `O=C(Nc1ccccc1)Nc1nnc(SCc2ccc(F)cc2)s1`, the displacement turned out to be 13.5%.

In the case of `O=C(N/N=C\C=C\c1ccco1)c1ccc(Br)cc1`, the displacement is -1.2%.

For the compound `COc1ccc(CCNC(=O)c2ccc(N(Cc3ccc(Cl)cc3)S(C)(=O)=O)cc2)cc1OC`, the displacement amounted to 13.7%.

For `COc1ccc(OC)c(NC(=O)COc2ccccc2C(C)(C)C)c1`, the displacement is -6.8%.
